From the antibiotic and cytotoxicity screens of Wong et al. (2023)
Some of the results follow.

How the values were obtained:
HSkMC = human skeletal muscle cells; assay: cytotoxicity call (relative viability < 0.9); conditions: 10 µM
HepG2 = assay: cytotoxicity call (relative viability < 0.9); conditions: 10 µM
S. aureus RN4220 = assay: growth inhibition call (relative growth <= 0.2); conditions: 50 µM

Structure (SMILES) | cytotoxicity call (HSkMC) | cytotoxicity call (HepG2) | growth inhibition call (S. aureus RN4220)
Nc1c2c(=O)[nH]c(=O)cc-2[nH]n1-c1ccccc1 | inactive | inactive | inactive
O=C(O)CCCCCCC(=O)O | inactive | inactive | inactive
O=C(O)/C=C/C(=O)Nc1nccs1 | inactive | inactive | inactive
CCOc1ccc(N2C(=O)/C(=C/C=C/c3ccccc3OC)S(=O)(=O)[C@@H]2c2cccc([N+](=O)[O-])c2)cc1 | inactive | inactive | inactive
COc1ccc(S(=O)(=O)Nc2ccc3c(c2)CC(=O)N([C@@H](C)CO)C[C@H](C)[C@H](CN(C)S(=O)(=O)c2ccc(C)cc2)O3)cc1 | inactive | inactive | inactive
C[C@@H]1CN([C@H](C)CO)C(=O)c2cccc(NC(=O)Nc3ccc(C(F)(F)F)cc3)c2O[C@H]1CN(C)CC1CCCCC1 | active | active | inactive
COc1ccc(NC(=O)N(C)C[C@H]2OCCCC[C@@H](C)Oc3ccc(NC(=O)Cc4ccccc4)cc3C(=O)N([C@H](C)CO)C[C@@H]2C)cc1 | inactive | inactive | inactive
C[C@H]1CN([C@@H](C)CO)C(=O)Cc2cc(NC(=O)CCN3CCOCC3)ccc2O[C@@H]1CN(C)C(=O)Nc1ccc(F)cc1 | inactive | inactive | inactive
COc1cccc(S(=O)(=O)N(C)C[C@H]2Oc3ncc(C#CCC(C)C)cc3C(=O)N([C@H](C)CO)C[C@@H]2C)c1 | inactive | active | inactive
CC(=O)OC12COC1CC(O)C1(C)C(=O)C(O)C3=C(C)C(OC(=O)C(O)C(NC(=O)OC(C)(C)C)c4ccccc4)CC(O)(C(OC(=O)c4ccccc4)C21)C3(C)C.O.O.O (stereo not drawn) | inactive | active | inactive
Cc1cc(C(=O)Nc2cccc3c2O[C@@H](CN(C)C(=O)Nc2ccccc2)[C@@H](C)CN([C@@H](C)CO)C3=O)n(C)n1 | inactive | inactive | inactive
CC[C@@]1(O)C(=O)OCc2c1cc1n(c2=O)Cc2c-1nc1cc(F)c(C)c3c1c2[C@@H](N)CC3 | active | active | inactive
Cc1noc(C)c1NC(=O)N(C)C[C@@H]1Oc2ncc(C#CCN(C)C)cc2C(=O)N([C@@H](C)CO)C[C@H]1C | inactive | inactive | inactive
C[C@@H]1CN([C@@H](C)CO)C(=O)c2cc(NS(=O)(=O)c3cn(C)cn3)ccc2O[C@H]1CN(C)Cc1ccc2c(c1)OCO2 | inactive | inactive | inactive
Cc1ccccc1S(=O)(=O)N1C[C@@H](O)COC[C@H]2O[C@@H](CC(=O)NCc3ccccc3Cl)CC[C@@H]21 | inactive | inactive | inactive
COc1ccc(S(=O)(=O)Nc2ccc3c(c2)C(=O)N([C@@H](C)CO)C[C@@H](C)[C@@H](CN(C)S(=O)(=O)c2ccc(OC)cc2)O3)cc1 | inactive | inactive | inactive
C[C@@H]1CN([C@@H](C)CO)C(=O)c2cc(C#Cc3cccnc3)cnc2O[C@H]1CN(C)S(C)(=O)=O | inactive | inactive | inactive
CC(C)(C)[S@@](=O)N1Cc2cc(C(=O)NCc3ccc4c(c3)OCO4)nc(CCNS(=O)(=O)c3ccccc3)c2[C@H]1CCO | inactive | inactive | inactive
C[C@H]1CN([C@@H](C)CO)C(=O)Cc2cc(NC(=O)Cn3cnnn3)ccc2O[C@@H]1CN(C)Cc1ccncc1 | inactive | inactive | inactive
CCC[C@@H]1C[C@@H](C(=O)N[C@H]([C@H]2O[C@H](SC)[C@H](O)[C@@H](O)[C@H]2O)[C@H](C)O)N(C)C1 | inactive | inactive | active
C[C@H](CO)N1C[C@H](C)[C@H](CN(C)Cc2ccc3c(c2)OCO3)Oc2ccc(NC(=O)CCN3CCOCC3)cc2C1=O | inactive | inactive | inactive
COc1cccc(S(=O)(=O)N2C[C@H](O)COC[C@@H]3O[C@@H](CC(=O)NCCCN4CCOCC4)CC[C@H]32)c1 | inactive | inactive | inactive
Cn1cnc(CCNC(=O)C[C@H]2CC[C@H]3[C@@H](COC[C@H](O)CN3C(=O)Nc3ccc(C(F)(F)F)cc3)O2)c1 | inactive | inactive | inactive
COCC(=O)Nc1ccc2c(c1)C(=O)N(C)C[C@H](OC)[C@@H](C)CN(Cc1ccccc1F)[C@H](C)CO2 | inactive | inactive | inactive
CC(C)NC(=O)N(C)C[C@H]1Oc2ccc(NS(=O)(=O)c3cn(C)cn3)cc2C(=O)N([C@@H](C)CO)C[C@@H]1C | inactive | inactive | inactive
COc1ccc(NC(=O)Nc2ccc3c(c2)C(=O)N([C@@H](C)CO)C[C@H](C)[C@H](CN(C)Cc2ccc(Cl)c(Cl)c2)OCCCC[C@@H](C)O3)cc1 | inactive | inactive | inactive
